In the supplement of paper PMC4604168 (melanoma cell lines):
The other results are listed elsewhere or left out. Many values rest on one well or one pass, so single values are uncertain.

Assays:
Assay in all cases: cell count relative to DMSO control; melanoma cells; higher = more viable cells
Settings in all cases: library dose: standard library concentration; 72 h
[1] = test system: SkMel28
[2] = test system: SkMel2
[3] = test system: SkMel30
[4] = test system: SkMel5
[5] = test system: UACC257
[6] = test system: UACC62
[7] = test system: WM115
[8] = test system: WM1716
[9] = test system: WM1745
[10] = test system: WM3526
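Further: cells treated in 1,536-well plates, then fixed and DAPI-stained, with nuclei counted from automated high-throughput microscope images.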

| Compound | cell count [1] | cell count [2] | cell count [3] | cell count [4] | cell count [5] | cell count [6] | cell count [7] | cell count [8] | cell count [9] | cell count [10] |
| --- | --- | --- | --- | --- | --- | --- | --- | --- | --- | --- |
| Cn1c(Nc2ccc(C(F)(F)F)cc2)nc2cc(Oc3ccnc(-c4ncc(C(F)(F)F)[nH]4)c3)ccc21 + CN(NC(=O)CC(=O)NN(C)C(=S)c1ccccc1)C(=S)c1ccccc1 [STA4783] (first compound 0.4 µM, partner dose 0.03 µM) | 23% | 33.3% | 64.9% | 24.7% | 65.5% | 55.8% | 29.7% | 65.1% | 26.5% | 42.9% |
| C#Cc1cccc(Nc2ncnc3cc(OCCOC)c(OCCOC)cc23)c1 [erlotinib] + CN(C)S(=O)(=O)c1ccc2c(c1)/C(=C/c1cc3c([nH]1)CCCC3)C(=O)N2 [SU6656] (first compound 4 µM, partner dose 2 µM) | 39.2% | 90.3% | 76.9% | 65.4% | 86.1% | 50.6% | 47.3% | 59% | 47.5% | 68% |
| OCc1c[nH]c2ccccc12 [Indole-3-carbinol] + Cn1cncc1[C@@](N)(c1ccc(Cl)cc1)c1ccc2c(c1)c(-c1cccc(Cl)c1)cc(=O)n2C [tipifarnib] (first compound 4 µM, partner dose 0.05 µM) | 59.6% | 55.4% | 93.2% | 59.8% | 103% | 69.5% | 58.4% | 59.4% | 120% | 70.9% |
| OCc1c[nH]c2ccccc12 [Indole-3-carbinol] + Cc1cc([N+](=O)[O-])ccc1NS(=O)(=O)c1cc(Cl)ccc1Cl [FH535] (first compound 4 µM, partner dose 5 µM) | 58% | 78.2% | 76.7% | 60% | 64% | 78.7% | 82.6% | 81% |  | 64.9% |
| C#Cc1cccc(Nc2ncnc3cc(OCCOC)c(OCCOC)cc23)c1 [erlotinib] + NCC(=O)Nc1ccc(-n2nc(C(F)(F)F)cc2-c2ccc3c(ccc4ccccc43)c2)cc1 [OSU03012] (first compound 4 µM, partner dose 5 µM) | 25.4% | 39.1% | 60.6% | 48.6% | 85.8% | 67.4% | 65.1% | 79.1% | 39.3% | 44.6% |
| Clc1ccc(Nc2nnc(Cc3ccncc3)c3ccccc23)cc1 [vatalanib] + COc1cc2ncnc(Nc3ccc(Oc4ccccc4)cc3)c2cc1OC [SrcI1] (first compound 10 µM, partner dose 10 µM) | 53.6% | 78.8% | 67.2% | 39.3% | 71.4% | 56.9% | 67.2% | 70.8% |  | 42.3% |
| Nc1cccc2c1CN(C1CCC(=O)NC1=O)C2=O (configuration not stated) [lenalidomide] + OCCn1cc(-c2cnc3nnn(Cc4ccc5ncccc5c4)c3n2)cn1 [PF04217903] (first compound 5 µM, partner dose 5 µM) | 145% | 96.2% | 104% | 106% | 106% | 94.2% | 102% | 102% | 66.3% | 87% |
| C#Cc1cccc(Nc2ncnc3cc(OCCOC)c(OCCOC)cc23)c1 [erlotinib] + C[C@@H]1CCN(C(=O)CC#N)C[C@@H]1N(C)c1ncnc2[nH]ccc12 [CP690550] (first compound 4 µM, partner dose 5 µM) | 57.8% | 87% | 64.8% | 64.4% | 97.3% | 71.6% | 66.8% | 88.2% | 56% | 87.7% |
| Cn1c(Nc2ccc(C(F)(F)F)cc2)nc2cc(Oc3ccnc(-c4ncc(C(F)(F)F)[nH]4)c3)ccc21 + COCC[n+]1c2c(n(Cc3cnccn3)c1C)C(=O)c1ccccc1C2=O [YM155] (first compound 0.4 µM, partner dose 0.002 µM) | 21.8% | 29.8% | 42.1% | 29.4% | 22.1% | 40.7% | 27.3% | 55.6% | 65.7% | 44.5% |
| OCc1c[nH]c2ccccc12 [Indole-3-carbinol] + COc1ccc(COc2ccc(Cc3cnc(N)nc3N)cc2OC)cc1 [GW2580] (first compound 4 µM, partner dose 5 µM) | 98.2% | 106% | 81.6% | 78.5% | 80.7% | 91.1% | 96.6% | 97.6% |  | 116% |
| OCc1c[nH]c2ccccc12 [Indole-3-carbinol] + Cn1nnc2c(C(N)=O)ncn2c1=O [temozolomide] (first compound 4 µM, partner dose 10 µM) | 37.4% | 91% | 66.8% | 73.3% | 87.5% | 62.8% | 66.4% | 55.2% | 75.4% | 86.7% |
| O=C(CCCCCCC(=O)Nc1ccccc1)NO [vorinostat] + COc1ccc(-c2ccc3c(N4CCOCC4)nc(N4C[C@@H](C)O[C@@H](C)C4)nc3n2)cc1CO [KU0063794] (first compound 0.4 µM, partner dose 0.1 µM) | 42.3% | 58% | 77.8% | 45% | 77.1% | 110% | 74.9% | 90.1% | 94.3% | 59.2% |
